# Test results: the supplement of paper PMC8728848
# The list shows a part of the results.
# B1: NcCVNHO (Neurospora crassa), Q7S6U4 (protein)
# chain: MSFHVTAEDARIEVRDNRTILFARLRREDGEWNDASYELDQIIGNNDGHFQWGGQNFTETAEDIRFHPKEGAAEQPILRARLRDCNGEFHDRDVNLTEIVENVNGEFQAKF
# Tests used:
# Assay in all cases: glycan array binding signal (z-score within array); higher = stronger binding
# Conditions in all cases: glycan notation: IUPAC condensed, linker removed
# Gal(b1-3)GalNAc = biological target: Gal(b1-3)GalNAc
# How it was run: (§1)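 Glycan array binding is given as a within-array Z-score, which can be read as non-binding when negative. The arrays, 3228 of them, came from the Consortium for Functional Glycomics database and were retained only where the protein sequence was available. Z-scores were averaged across arrays of the same protein sequence at different concentrations or buffers and across linkers.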
# [1] = biological target: Gal(b1-3)GalNAc(b1-3)Gal(a1-4)Gal(b1-4)Glc
# How it was run: as §1
# [2] = biological target: Gal(b1-3)GalNAc(b1-3)Gal(b1-4)Glc
# How it was run: as §1
# [3] = biological target: Gal(b1-3)GalNAc(b1-3)Gal(b1-4)GlcNAc
# How it was run: as §1
# [4] = biological target: Gal(b1-3)GalNAc(b1-4)Gal(b1-4)Glc
# How it was run: as §1
# [5] = biological target: Gal(b1-3)GalNAc(b1-4)[Neu5Ac(a2-3)]Gal(b1-4)Glc
# How it was run: as §1
# Gal(b1-3)GlcNAc = biological target: Gal(b1-3)GlcNAc
# How it was run: as §1
# [6] = biological target: Gal(b1-3)GlcNAc(b1-2)Man(a1-3)[Gal(b1-3)GlcNAc(b1-2)Man(a1-6)]Man(b1-4)GlcNAc(b1-4)GlcNAc
# How it was run: as §1
# [7] = biological target: Gal(b1-3)GlcNAc(b1-3)Gal(b1-3)GlcNAc
# How it was run: as §1
# [8] = biological target: Gal(b1-3)GlcNAc(b1-3)Gal(b1-4)Glc
# How it was run: as §1
# [9] = biological target: Gal(b1-3)GlcNAc(b1-3)Gal(b1-4)GlcNAc
# How it was run: as §1
# [10] = biological target: Gal(b1-3)[Fuc(a1-4)]GlcNAc
# How it was run: as §1
# [11] = biological target: Gal(b1-3)[Fuc(a1-4)]GlcNAc(b1-3)Gal(b1-3)[Fuc(a1-4)]GlcNAc
# How it was run: as §1
# [12] = biological target: Gal(b1-3)[Fuc(a1-4)]GlcNAc(b1-3)Gal(b1-4)GlcNAc
# How it was run: as §1
# [13] = biological target: Gal(b1-3)[Fuc(a1-4)]GlcNAc(b1-3)Gal(b1-4)[Fuc(a1-3)]GlcNAc
# How it was run: as §1
# [14] = biological target: Gal(b1-3)[GlcNAc(b1-6)]GalNAc
# How it was run: as §1
# [15] = biological target: Gal(b1-3)[GlcNAc(b1-6)]GlcNAc
# How it was run: as §1
# [16] = biological target: Gal(b1-3)[Neu5Ac(a2-6)]GalNAc
# How it was run: as §1
# [17] = biological target: Gal(b1-3)[Neu5Ac(a2-6)]GlcNAc
# How it was run: as §1
# [18] = biological target: Gal(b1-3)[Neu5Ac(a2-6)]GlcNAc(a1-4)Gal(b1-4)Glc
# How it was run: as §1
# [19] = biological target: Gal(b1-3)[Neu5Ac(a2-6)]GlcNAc(b1-6)Gal(b1-4)Glc
# How it was run: as §1
# [20] = biological target: Gal(b1-3)[Neu5Ac(b2-6)]GalNAc
# How it was run: as §1
# [21] = biological target: Gal(b1-3)[Neu5Ac(b2-6)]GlcNAc
# How it was run: as §1
# [22] = biological target: Gal(b1-4)GalNAc(a1-3)[Fuc(a1-2)]Gal(b1-4)GlcNAc
# How it was run: as §1
# [23] = biological target: Gal(b1-4)GalNAc(b1-3)[Fuc(a1-2)]Gal(b1-4)GlcNAc
# How it was run: as §1
# Gal(b1-4)Glc = biological target: Gal(b1-4)Glc
# How it was run: as §1
# Gal(b1-4)Glc6S = biological target: Gal(b1-4)Glc6S
# How it was run: as §1
# Gal(b1-4)GlcNAc = biological target: Gal(b1-4)GlcNAc
# How it was run: as §1
# [24] = biological target: Gal(b1-4)GlcNAc(a1-6)Gal(b1-4)GlcNAc
# How it was run: as §1
# [25] = biological target: Gal(b1-4)GlcNAc(b1-2)Man(a1-3)[Gal(b1-4)GlcNAc(b1-2)Man(a1-6)]Man(b1-4)GlcNAc(b1-4)GlcNAc
# How it was run: as §1
# [26] = biological target: Gal(b1-4)GlcNAc(b1-3)Gal(b1-3)GlcNAc
# How it was run: as §1
# [27] = biological target: Gal(b1-4)GlcNAc(b1-3)Gal(b1-4)Glc
# How it was run: as §1
# [28] = biological target: Gal(b1-4)GlcNAc(b1-3)Gal(b1-4)GlcNAc
# How it was run: as §1
# [29] = biological target: Gal(b1-4)GlcNAc(b1-3)Gal(b1-4)GlcNAc(b1-3)Gal(b1-4)GlcNAc
# How it was run: as §1
# [30] = biological target: Gal(b1-4)GlcNAc(b1-3)Gal(b1-4)[Fuc(a1-3)]GlcNAc(b1-3)Gal(b1-4)[Fuc(a1-3)]GlcNAc
# How it was run: as §1
# [31] = biological target: Gal(b1-4)GlcNAc(b1-3)GalNAc
# How it was run: as §1
# [32] = biological target: Gal(b1-4)GlcNAc(b1-3)[Gal(b1-4)GlcNAc(b1-6)]Gal(b1-4)GlcNAc
# How it was run: as §1
binder,measurement,setting,value
B1,glycan array binding signal (z-score),Gal(b1-3)GalNAc,-0.141
same,glycan array binding signal (z-score),[1],-0.054
same,glycan array binding signal (z-score),[2],-0.165
same,glycan array binding signal (z-score),[3],-0.108
same,glycan array binding signal (z-score),[4],-0.237
same,glycan array binding signal (z-score),[5],-0.239
same,glycan array binding signal (z-score),Gal(b1-3)GlcNAc,-0.26
same,glycan array binding signal (z-score),[6],-0.174
same,glycan array binding signal (z-score),[7],-0.168
same,glycan array binding signal (z-score),[8],4.71
same,glycan array binding signal (z-score),[9],-0.264
same,glycan array binding signal (z-score),[10],-0.235
same,glycan array binding signal (z-score),[11],-0.154
same,glycan array binding signal (z-score),[12],-0.219
same,glycan array binding signal (z-score),[13],-0.231
same,glycan array binding signal (z-score),[14],-0.196
same,glycan array binding signal (z-score),[15],-0.122
same,glycan array binding signal (z-score),[16],-0.236
same,glycan array binding signal (z-score),[17],-0.167
same,glycan array binding signal (z-score),[18],-0.172
same,glycan array binding signal (z-score),[19],4.11
same,glycan array binding signal (z-score),[20],-0.264
same,glycan array binding signal (z-score),[21],-0.106
same,glycan array binding signal (z-score),[22],-0.227
same,glycan array binding signal (z-score),[23],-0.191
same,glycan array binding signal (z-score),Gal(b1-4)Glc,-0.208
same,glycan array binding signal (z-score),Gal(b1-4)Glc6S,-0.213
same,glycan array binding signal (z-score),Gal(b1-4)GlcNAc,-0.209
same,glycan array binding signal (z-score),[24],-0.189
same,glycan array binding signal (z-score),[25],-0.192
same,glycan array binding signal (z-score),[26],-0.157
same,glycan array binding signal (z-score),[27],1.89
same,glycan array binding signal (z-score),[28],-0.233
same,glycan array binding signal (z-score),[29],-0.244
same,glycan array binding signal (z-score),[30],-0.185
same,glycan array binding signal (z-score),[31],-0.216
same,glycan array binding signal (z-score),[32],-0.185
